Results taken from PMC8295262.
These are yes or no findings as the source states them, for the method shown. In cells and extracts the contact can be indirect. Some entries that bind do so weakly or less than the wild type.

Protein sequences, listed by entry. Tags and fused reporters are not part of them. Lines headed by an entry give the natural chain unless they say otherwise; changes in a name come on top. Residues count along the entry.
UniProt P40337: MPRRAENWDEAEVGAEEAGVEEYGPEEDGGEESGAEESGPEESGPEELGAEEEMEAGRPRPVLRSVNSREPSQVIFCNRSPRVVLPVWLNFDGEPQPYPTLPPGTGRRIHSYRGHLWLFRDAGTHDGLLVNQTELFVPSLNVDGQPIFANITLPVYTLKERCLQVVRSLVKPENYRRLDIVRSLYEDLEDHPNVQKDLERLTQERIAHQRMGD
VHL(AA1-53): residues 1-53 of P40337
UniProt Q8N122: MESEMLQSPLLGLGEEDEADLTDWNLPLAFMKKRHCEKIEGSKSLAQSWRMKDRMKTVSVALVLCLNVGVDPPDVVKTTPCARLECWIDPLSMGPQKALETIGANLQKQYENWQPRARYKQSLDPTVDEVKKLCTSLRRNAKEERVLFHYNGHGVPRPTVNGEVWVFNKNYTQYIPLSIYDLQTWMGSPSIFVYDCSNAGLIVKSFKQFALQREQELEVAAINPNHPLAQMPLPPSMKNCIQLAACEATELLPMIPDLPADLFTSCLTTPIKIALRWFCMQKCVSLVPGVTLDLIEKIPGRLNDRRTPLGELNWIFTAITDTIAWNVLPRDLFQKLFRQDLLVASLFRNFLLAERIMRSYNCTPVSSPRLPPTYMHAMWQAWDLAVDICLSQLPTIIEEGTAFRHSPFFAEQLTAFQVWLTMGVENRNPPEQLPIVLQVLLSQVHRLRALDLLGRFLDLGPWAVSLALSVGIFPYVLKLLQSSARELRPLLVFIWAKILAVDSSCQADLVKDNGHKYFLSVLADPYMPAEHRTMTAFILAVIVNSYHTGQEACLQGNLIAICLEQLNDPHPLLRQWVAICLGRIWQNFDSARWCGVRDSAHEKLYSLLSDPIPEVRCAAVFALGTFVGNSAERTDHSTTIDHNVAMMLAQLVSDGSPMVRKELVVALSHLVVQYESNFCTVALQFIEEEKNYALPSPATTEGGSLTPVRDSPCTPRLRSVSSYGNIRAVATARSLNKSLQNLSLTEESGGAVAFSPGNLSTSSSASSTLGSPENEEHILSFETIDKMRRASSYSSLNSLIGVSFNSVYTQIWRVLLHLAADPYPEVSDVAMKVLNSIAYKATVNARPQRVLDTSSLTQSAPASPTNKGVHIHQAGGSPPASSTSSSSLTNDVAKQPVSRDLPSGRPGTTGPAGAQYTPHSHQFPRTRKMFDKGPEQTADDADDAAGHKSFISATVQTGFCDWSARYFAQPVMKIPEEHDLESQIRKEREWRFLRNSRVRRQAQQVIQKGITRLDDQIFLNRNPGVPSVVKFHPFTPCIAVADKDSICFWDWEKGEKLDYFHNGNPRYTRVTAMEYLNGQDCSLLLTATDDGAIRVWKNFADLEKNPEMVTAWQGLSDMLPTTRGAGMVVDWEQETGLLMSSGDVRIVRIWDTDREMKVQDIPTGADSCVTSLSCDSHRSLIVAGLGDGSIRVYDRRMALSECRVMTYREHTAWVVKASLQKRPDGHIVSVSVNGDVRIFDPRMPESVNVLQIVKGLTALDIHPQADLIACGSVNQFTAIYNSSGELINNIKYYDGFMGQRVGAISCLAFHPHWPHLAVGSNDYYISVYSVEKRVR

Assays:
[1] = target: VHL(AA1-53) (human) (UniProt P40337); assay: co-IP; HEK293T cells co-transfected; lysis in IP buffer (20 mM Tris-HCl pH 7.5, 1% Triton X-100, 50 mM NaCl, 50 mM NaF, 15 mM Na4P2O7, 0.1 mM EDTA, 2 mM Na3VO4); Flag-tagged protein precipitated on anti-FLAG M2 affinity beads overnight at 4 °C; co-precipitate detected by blot with anti-Myc or anti-GFP
[2] = target: Flag.VHL30 (von Hippel-Lindau protein, full length) (human) (UniProt P40337); assay: as above
[3] = target: VHL(Y98N) (human) (UniProt P40337); assay: co-IP; overexpressed VHL mutants and RAPTOR (Supplementary Fig. 2; details not shown)
[4] = target: VHL(Y112N) (human) (UniProt P40337); assay: as above
[5] = target: endogenous VHL (human (endogenous in HeLa)) (UniProt P40337); assay: co-IP; endogenous proteins; four dishes of confluent HeLa cells pooled, IP buffer; anti-VHL antibody (Santa Cruz) or normal rabbit IgG overnight, Protein A beads 2 h at 4 °C; blot with anti-RAPTOR

Row | binding [1] | binding [2] | binding [3] | binding [4] | binding [5] | Substance
1 | no binding | binds | binds | binds | – | Myc.RAPTOR (regulatory-associated protein of mTOR) (from UniProt Q8N122 1-1335)
2 | – | – | – | – | binds | endogenous RAPTOR (from UniProt Q8N122 1-1335)
